# From PubChem BioAssay AID1240 (Sanford-Burnham Center for Chemical Genomics, 2008)
# Among all 50,000 compounds or so, about 800 (1.6%) showed an effect of 50% or more. The list shows a part of the results.
# Molecular target: Bcl-2-like protein 10 (Homo sapiens) (UniProt Q9HD36)
# Experiment: Phenotype converters, Bcl-B/TR3 peptide binding displacement, primary biochemical FP (AID 1240);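 note: 0% = Bcl-B with tracer peptide and DMSO and 100% = tracer peptide lacking Bcl-B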
# Conditions: GST-Bcl-B / FITC-TR3 peptide fluorescence polarization; stronger effect = higher value; compound at 3.75 mg/L
# UniProt Q9HD36, sequence (Q9HD36 whole entry, looked up): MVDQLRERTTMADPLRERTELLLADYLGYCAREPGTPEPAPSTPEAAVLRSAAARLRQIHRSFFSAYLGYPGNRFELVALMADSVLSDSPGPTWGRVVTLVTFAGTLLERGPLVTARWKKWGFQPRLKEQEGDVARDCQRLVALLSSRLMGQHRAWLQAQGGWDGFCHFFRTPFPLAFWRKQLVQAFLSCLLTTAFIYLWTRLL
row,SMILES,displacement [%]
1,CC(C)c1ccccc1NC(=O)Cc1ccc(Br)cc1,1.9
2,COC(=O)c1ccc(N=Cc2c(O)n(C)c(=O)[nH]c2=O)cc1,5.1
3,CN1CCN(C(=O)CCN2C(=O)c3cccc4cccc(c34)C2=O)CC1,18.2
4,NC1=NC(=O)/C(=C/c2ccc(OC(=O)c3ccccc3Br)cc2)S1,8.1
5,CC(=O)N1CCN(c2ccc(NC(=O)c3cccc(Cl)c3)cc2)CC1,16.4
6,O=C(Nc1cccc(NC(=S)NC(=O)c2ccco2)c1)c1cccc(Cl)c1,1.4
7,Cc1cc(Oc2ccc(F)c(F)c2)c(F)cc1[N+](=O)[O-],-1.7
8,COc1ccc(CC(=O)Nc2ccc(S(=O)(=O)Nc3nccs3)cc2)cc1,5.1
9,COc1ccc(Nc2ccc(OC)cc2)cc1,14.1
10,O=C(O)Cn1nnc(-c2ccccc2Cl)n1,6.6
11,Cc1[nH]nc(-c2ccccc2)c1Sc1ccc(Cl)cc1,-9.7
12,O=C(COc1cccc2ccccc12)NNC(=O)Cc1ccc(Cl)cc1,-12.3
13,CCN(CC)c1ccc(NC(=O)/C=C\c2ccccc2Cl)cc1,14.7
14,CCOC(=O)C(=CNc1ncccc1C)C(=O)OCC,-3.1
15,Clc1ccccc1-c1nc(N2CCOCC2)c2ccccc2n1,2.1
16,Cc1cc(C)n(-c2cc(C)c3cccc([N+](=O)[O-])c3n2)n1,3.3
17,O=C(COc1ccc([N+](=O)[O-])cc1)Nc1ccccn1,-10.4

row,SMILES,displacement [%]
1,C(=C\CSc1cccc2cccnc12)/CSc1cccc2cccnc12,-3.3
2,CCc1ccc(C(=O)/C=C/c2cccc([N+](=O)[O-])c2)cc1,1
3,CC(=O)N1CCN(c2ccc(NC(=O)c3ccco3)cc2)CC1,7.8
4,COc1ccc(/C=C/C(=O)n2nc(C)cc2C)cc1,10.9
5,Ic1ccc(OCCCn2ccnc2)cc1,-0.7
6,O=C(NCC12CC3CC(CC(C3)C1)C2)N1CCOCC1,-5.5
7,Cc1occc1C(=O)Nc1nccs1,6.2
8,O=C1C=C(c2cccc([N+](=O)[O-])c2)C(=O)N1c1ccc(Cl)c(Cl)c1,22.1
9,CCN(CC)C(=O)c1sc(NC(=O)/C=C/c2cccs2)c(C(=O)OC(C)C)c1C,-11
10,Cc1ccc(-c2csc(NC(=O)Nc3cccc(Cl)c3)n2)cc1,-8.4
11,O=C(Nc1ccc(N2CCOCC2)cc1)c1ccc(Br)o1,17.4
12,CC(C)(C)OC(=O)COc1cc2oc(=O)c3c(c2cc1Cl)CCC3,10.1
13,CCOC(=O)C1=C(O)/C(=C\c2ccc(OC)cc2)N=C1/C=C/N(C)C,5
14,CSc1nc(C)cc(-n2cc(F)c(=O)[nH]c2=O)n1,2.7
15,CC(C)=CC1C(C(=O)Nc2ccc(C)cn2)C1(C)C (stereo not drawn),-11.9
16,O=C1CC(O)(C(F)F)Oc2ccccc21 (stereo not drawn),-1.2
